For four molecules, IC50 results are on record in PMC8725944, “Design and synthesis of chromone-nitrogen mustard derivatives and evaluation of anti-breast cancer activity” (Journal of Enzyme Inhibition and Medicinal Chemistry, 2021).

The subject of the experiment is human mammary gland tumour cell line MCF-7. Description: CCK-8 assay, antiproliferative activity against MCF-7. Particulars: MCF7, 72 h, read-out: IC50 MCF-7. (In general: Tetrazolium dyes change colour on reduction, which living cells bring about.)

For orientation: IC50 means the midpoint of a concentration-inhibition curve. With `Cc1ccc2occ(CO)c(=O)c2c1` [Compound 15], the IC50 was more than 20 µM.

Turning to `COc1ccc2occ(CO)c(=O)c2c1` [Compound 16], the IC50 was more than 20 µM. Turning to `Cc1ccc2occ(CN)c(=O)c2c1` [Compound 19], the IC50 was more than 20 µM. With `COc1ccc2occ(CN)c(=O)c2c1` [Compound 20] the figure was more than 20 µM.
